According to the supplement of paper PMC4604168 (melanoma cell lines):
The other results are listed elsewhere or left out. Single values are uncertain, as repeats are few or missing.

How the values were obtained:
Assay in all cases: cell count relative to DMSO control; melanoma cells; higher = more viable cells
Settings in all cases: library dose: standard library concentration; 72 h
G361 = tested on: G361
IPC-298 = tested on: IPC-298
IST-MEL1 = tested on: IST-MEL1
LB2518-MEL = tested on: LB2518-MEL
LOXIMVI = tested on: LOXIMVI
MEL-HO = tested on: MEL-HO
MZ2-MEL = tested on: MZ2-MEL
MeWo = tested on: MeWo
RPMI7951 = tested on: RPMI7951
RVH-421 = tested on: RVH-421
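Note: cells treated in 1,536-well plates, then fixed and DAPI-stained, with nuclei counted from automated high-throughput microscope images.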

Compound | cell count (G361) [%] | cell count (IPC-298) [%] | cell count (IST-MEL1) [%] | cell count (LB2518-MEL) [%] | cell count (LOXIMVI) [%] | cell count (MEL-HO) [%] | cell count (MZ2-MEL) [%] | cell count (MeWo) [%] | cell count (RPMI7951) [%] | cell count (RVH-421) [%]
C[C@]12O[C@H](C[C@]1(O)CO)n1c3ccccc3c3c4c(c5c6ccccc6n2c5c31)CNC4=O [Lestaurtinib] + C[C@]1(c2nc3c(C(N)=O)cccc3[nH]2)CCCN1 [Veliparib] (first compound 0.02 µM, partner dose 7 µM) | 97.8 | 88.3 | 105 | 61.9 | 108 | 82.3 | 87.7 | 88.3 | 79.7 | 78.7
Cn1cc(C2=C(c3cn(C4CCN(Cc5ccccn5)CC4)c4ccccc34)C(=O)NC2=O)c2ccccc21 [Enzastaurin] + C/C(O)=C(\C#N)C(=O)Nc1cc(Br)ccc1Br [LFM-A13] (first compound 4 µM, partner dose 10 µM) | 75.8 | 104 | 65.1 | 79.2 | 102 | 85.5 | 94.6 | 88.5 | 41.7 | 64.3
C[C@]12O[C@H](C[C@]1(O)CO)n1c3ccccc3c3c4c(c5c6ccccc6n2c5c31)CNC4=O [Lestaurtinib] + O=C(O)[C@@H]1[O][Sb](=[O])([O][Sb]2(=[O])[O][C@H]([C@H](O)CO)[C@H](O)[C@H](C(=O)O)[O]2)[O][C@H]([C@H](O)CO)[C@@H]1O [stibogluconate] (first compound 0.02 µM, partner dose 10 µM) | 79.1 | 68.6 | 95.7 | 70.7 | 84.5 | 76.8 | 98.8 | 77.3 | 133 | 94.6
C[C@]12O[C@H](C[C@]1(O)CO)n1c3ccccc3c3c4c(c5c6ccccc6n2c5c31)CNC4=O [Lestaurtinib] + c1cc(-c2cnn3cc(-c4ccc(OCCN5CCCCC5)cc4)cnc23)ccn1 [Dorsomorphin] (first compound 0.02 µM, partner dose 2 µM) | 64.4 | 84.5 | 107 | 51.5 | 116 | 87.7 | 62.6 | 62.1 | 67.6 | 103
C[C@]12O[C@H](C[C@]1(O)CO)n1c3ccccc3c3c4c(c5c6ccccc6n2c5c31)CNC4=O [Lestaurtinib] + COc1ccc(-c2ccc3c(N4CCOCC4)nc(N4C[C@@H](C)O[C@@H](C)C4)nc3n2)cc1CO [KU0063794] (first compound 0.02 µM, partner dose 0.1 µM) | 61.6 | 52.7 | 93.5 | 62 | 91.3 | 68 | 72.9 | 50.8 | 104 | 86.2
N.N.[Cl][Pt][Cl] [cisplatin] + COc1ccc2c(c1)CCC1C2CCC2(C)C(NCCCCCCN3C(=O)C=CC3=O)CCC12 [U73122] (first compound 8 µM, partner dose 2 µM) | 46.8 | 79.6 | 74.9 | 72 | 32.4 | 78.8 | 82 | 42.6 | 6.07 | 89.8
C[C@]12O[C@H](C[C@]1(O)CO)n1c3ccccc3c3c4c(c5c6ccccc6n2c5c31)CNC4=O [Lestaurtinib] + Cc1cc(N2CCOCC2)cc2[nH]c(-c3c(NC[C@@H](O)c4cccc(Cl)c4)cc[nH]c3=O)nc12 [BMS536924] (first compound 0.02 µM, partner dose 1 µM) | 51.5 | 81.4 | 106 | 74.3 | 72.9 | 81.9 | 102 | 61.1 | 66.9 | 75.3
C[C@]12O[C@H](C[C@]1(O)CO)n1c3ccccc3c3c4c(c5c6ccccc6n2c5c31)CNC4=O [Lestaurtinib] + Nc1cccc2c1CN(C1CCC(=O)NC1=O)C2=O [lenalidomide] (first compound 0.02 µM, partner dose 5 µM) | 94.9 | 81 | 86.6 | 83.9 | 59.3 | 78 | 84.8 | 85.1 | 109 | 101
C[C@]12O[C@H](C[C@]1(O)CO)n1c3ccccc3c3c4c(c5c6ccccc6n2c5c31)CNC4=O [Lestaurtinib] + CCN(CC)CCNC(=O)c1c(C)[nH]c(/C=C2\C(=O)Nc3ccc(F)cc32)c1C [sunitinib] (first compound 0.02 µM, partner dose 2 µM) | 46.2 | 46.7 | 106 | 53.4 | 155 | 71.8 | 73.3 | 45.5 | 57.8 | 92.3
N.N.[Cl][Pt][Cl] [cisplatin] + Cc1cc([N+](=O)[O-])ccc1NS(=O)(=O)c1cc(Cl)ccc1Cl [FH535] (first compound 8 µM, partner dose 5 µM) | 40.9 | 51.2 | 47.7 | 72.3 | 43 | 50.1 | 67.4 | 96 | 80.3 | 44.8
N.N.[Cl][Pt][Cl] [cisplatin] + Cn1nnc2c(C(N)=O)ncn2c1=O [temozolomide] (first compound 8 µM, partner dose 10 µM) | 101 | 99.4 | 70.2 | 113 | 76.4 | 104 | 101 | 92.2 | 88.6 | 163
Cn1cc(C2=C(c3cn(C4CCN(Cc5ccccn5)CC4)c4ccccc34)C(=O)NC2=O)c2ccccc21 [Enzastaurin] + O=c1cc(-c2cccc3c2Sc2ccccc2S3)oc(N2CCOCC2)c1 [KU55933] (first compound 4 µM, partner dose 5 µM) | 41.8 | 84.8 | 58.5 | 42 | 81.1 | 86.9 | 94.6 | 97.4 | 37.8 | 48.9
C[As](C)SC[C@H](NC(=O)CC[C@H](N)C(=O)O)C(=O)NCC(=O)O [Darinaparsin] + O=C(CCCCCCC(=O)Nc1ccccc1)NO [vorinostat] (first compound 2 µM, partner dose 0.4 µM) | 71.6 | 95.5 | 78.1 | 80.9 | 59.8 | 85.6 | 107 | 72.1 | 66.5 | 96.5
C[As](C)SC[C@H](NC(=O)CC[C@H](N)C(=O)O)C(=O)NCC(=O)O [Darinaparsin] + Cn1nnc2c(C(N)=O)ncn2c1=O [temozolomide] (first compound 2 µM, partner dose 10 µM) | 86.4 | 81.7 | 73.5 | 107 | 41.5 | 89.7 | 97.4 | 76.6 | 110 | 86
Cn1cc(C2=C(c3cn(C4CCN(Cc5ccccn5)CC4)c4ccccc34)C(=O)NC2=O)c2ccccc21 [Enzastaurin] + COc1cc(N2CCC(N3CCN(C)CC3)CC2)ccc1Nc1ncc(Cl)c(Nc2ccccc2S(=O)(=O)C(C)C)n1 [NVP-TAE684] (first compound 4 µM, partner dose 0.4 µM) | 62.5 | 99.2 | 87.1 | 73.8 | 76.5 | 84.8 | 94.4 | 63.6 | 29 | 61.7
N.N.[Cl][Pt][Cl] [cisplatin] + CCCCCCCCCCCC1=C(O)C(=O)C=C(O)C1=O [Embelin] (first compound 8 µM, partner dose 6 µM) | 86.1 | 72.8 | 91.2 | 112 | 56.3 | 87.4 | 100 | 93.2 | 95.1 | 68
Cn1cc(C2=C(c3cn(C4CCN(Cc5ccccn5)CC4)c4ccccc34)C(=O)NC2=O)c2ccccc21 [Enzastaurin] + COc1cc(Nc2ncc(F)c(Nc3ccc4c(n3)NC(=O)C(C)(C)O4)n2)cc(OC)c1OC [Tamatinib] (first compound 4 µM, partner dose 2 µM) | 66.3 | 73.1 | 17.7 | 25.3 | 39.2 | 53.5 | 63.4 | 75.2 | 4.72 | 42.3
Cn1cc(C2=C(c3cn(C4CCN(Cc5ccccn5)CC4)c4ccccc34)C(=O)NC2=O)c2ccccc21 [Enzastaurin] + NCC(=O)Nc1ccc(-n2nc(C(F)(F)F)cc2-c2ccc3c(ccc4ccccc43)c2)cc1 [OSU03012] (first compound 4 µM, partner dose 5 µM) | 50.5 | 61 | 58.6 | 87.5 | 83.8 | 69.1 | 90.6 | 81.8 | 24.7 | 38.6
C[C@]12O[C@H](C[C@]1(O)CO)n1c3ccccc3c3c4c(c5c6ccccc6n2c5c31)CNC4=O [Lestaurtinib] + CO[C@H]1C[C@@H]2CC[C@@H](C)[C@@](O)(O2)C(=O)C(=O)N2CCCC[C@H]2C(=O)O[C@H]([C@H](C)C[C@@H]2CC[C@@H](OCCO)[C@H](OC)C2)CC(=O)[C@H](C)/C=C(\C)[C@@H](O)[C@@H](OC)C(=O)[C@H](C)C[C@H](C)/C=C/C=C/C=C/1C [everolimus] (first compound 0.02 µM, partner dose 0.1 µM) | 52.5 | 60.8 | 90.2 | 59.5 | 75.2 | 76.6 | 84.9 | 61 | 100 | 77.7
Cn1cc(C2=C(c3cn(C4CCN(Cc5ccccn5)CC4)c4ccccc34)C(=O)NC2=O)c2ccccc21 [Enzastaurin] + O=C(Nc1cccc(Cl)c1)Nc1ncc(CCNc2ncnc3ccsc23)s1 [SNS314] (first compound 4 µM, partner dose 0.004 µM) | 40.9 | 51.1 | 41.8 | 60 | 81.5 | 68 | 88 | 73.3 | 32.7 | 32.8
N.N.[Cl][Pt][Cl] [cisplatin] + O=C(O)c1ccc2c(c1)nc(Nc1cccc(Cl)c1)c1ccncc12 [CX4945] (first compound 8 µM, partner dose 2 µM) | 60.9 | 89.1 | 83.7 | 110 | 43.9 | 56.4 | 77.5 | 90.1 | 70 | 96.2
Cn1cc(C2=C(c3cn(C4CCN(Cc5ccccn5)CC4)c4ccccc34)C(=O)NC2=O)c2ccccc21 [Enzastaurin] + COc1cc2ncnc(Nc3ccc(Oc4ccccc4)cc3)c2cc1OC [SrcI1] (first compound 4 µM, partner dose 10 µM) | 72.3 | 75.6 | 81.8 | 54.5 | 220 | 85.7 | 93.3 | 57 | 22.5 | 97
